Values joined by “and” are separate entries in the source; they are usually repeats but may differ in a detail not shown here. Equal values may be shown once. Screen size: about 220,000 compounds; about 16,000 (7.3%) were called active. Inconclusive results, whose numbers are uncertain, are shown with a selection of clear calls. Calls come from the whole dose curve; as a rule, active = well fitted inhibition curve with a large enough effect (not every such curve was filed as active); inconclusive = small, poorly fitted or top-dose-only effect, or another doubt; inactive = no such curve, though single readings can be large or run the other way. No potency is given beside an inconclusive call; the fits are too rough.
Target: Aldehyde dehydrogenase 1A1 (Homo sapiens) (UniProt P00352)
Test: qHTS Assay for Inhibitors of Aldehyde Dehydrogenase 1 (ALDH1A1);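 for activity, negative = inhibition: plate controls were no enzyme wells and a reference inhibitor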
Details: Purified ALDH1A1, NADH fluorescence, propionaldehyde substrate; series mostly up to 75.3 µM
Potency is the fitted concentration of half-maximal effect; tags give direction and shape of the fitted curve.

Chain of UniProt P00352 (P00352 whole entry, looked up): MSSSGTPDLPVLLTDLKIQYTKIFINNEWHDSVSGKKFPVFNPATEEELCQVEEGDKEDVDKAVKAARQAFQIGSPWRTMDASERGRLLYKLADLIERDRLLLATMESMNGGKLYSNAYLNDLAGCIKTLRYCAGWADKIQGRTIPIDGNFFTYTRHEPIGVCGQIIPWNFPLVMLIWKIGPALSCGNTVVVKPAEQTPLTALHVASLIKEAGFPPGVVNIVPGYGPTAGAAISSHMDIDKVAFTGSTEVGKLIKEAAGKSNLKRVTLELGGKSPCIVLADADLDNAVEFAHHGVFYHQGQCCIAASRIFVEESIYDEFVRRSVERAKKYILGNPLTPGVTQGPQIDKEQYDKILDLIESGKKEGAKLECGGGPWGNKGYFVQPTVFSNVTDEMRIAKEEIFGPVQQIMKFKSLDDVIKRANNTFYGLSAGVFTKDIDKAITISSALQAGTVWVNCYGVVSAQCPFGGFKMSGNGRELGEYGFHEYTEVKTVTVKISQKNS

For `Cn1c(SCC(N)=O)nnc1-c1ccc(C(C)(C)C)cc1`, which Potency is on record?
The Potency was “inactive”.

With `CC1CCN(C(=O)c2ccc3c(c2)OCCO3)CC1` as the compound, how does the Potency read?
Its Potency is “inactive”.

For `COc1ccc(-c2nn(-c3ccccc3)cc2C(=O)N2CCOCC2)cc1`, which Potency is on record?
The Potency was inconclusive [inhibitor, partial curve].

Which Potency does the source give for `CCOC(=O)Cc1csc(NC(=O)/C=C\c2ccccc2)n1` here?
The Potency was inconclusive [inhibitor, full curve].

With `COc1ccccc1C(=O)NC(=S)/C=C1/N(C)c2ccccc2C1(C)C` as the compound, how does the Potency read?
Its Potency is “inactive”.

How did the Potency turn out when `C=CCN1C(=O)/C(=c2\sc3nc(=O)c(Cc4ccccc4Cl)nn3c2=O)c2ccccc21` was run?
Its Potency is active: 3.55 µM.

`COc1ccc(-n2nc3cc(C)c(NC(=O)C(C)C)cc3n2)cc1` was tested. Which Potency did it give?
Its Potency is inconclusive [inhibitor, full curve].

Which Potency does the source give for `Cn1cccc1C(=O)N1CCC2(CCN(Cc3nccs3)CC2)CC1` here?
The Potency was “inactive”.

`COc1ccc2c(CSc3nnc(-c4cccnc4)n3-c3ccccc3F)cc(=O)oc2c1` was tested. Which Potency did it give?
The Potency was inconclusive [inhibitor, partial curve].

With `C/C(=N\NC(=O)C1CC1)c1ccc(NC(=O)c2ccc(Br)o2)cc1` as the compound, how does the Potency read?
The Potency was inconclusive [inhibitor, single point].

With `CCCn1nc2cc(C(=O)NCc3ccc(OC(F)(F)F)cc3)ccc2c1OCC` as the compound, how does the Potency read?
The Potency was inconclusive [inhibitor, single point].

Which Potency does the source give for `CCOc1ccc2[nH]c(=O)c(CN(CCO)C(=O)c3ccc(F)cc3)cc2c1` here?
Its Potency is inconclusive [inhibitor, single point].

How did the Potency turn out when `CC1(O)C(=O)C=C2C=C3CCCN3C=C2C1=O` (configuration not stated) was run?
Its Potency is inconclusive [inhibitor, partial curve, poor fit].

For `O=C1CC(N2CCC(c3nc4ccccc4[nH]3)CC2)C(=O)N1c1ccccc1F` (configuration not stated), which Potency is on record?
Its Potency is active: 10 µM.

`O=C(NC(=S)Nc1nc(-c2cccc([N+](=O)[O-])c2)cs1)c1cc(Cl)ccc1Cl` was tested. Which Potency did it give?
The Potency was active: 28.2 µM.

For `Cc1ccc(SCC(=O)NCc2cccnc2)cc1`, which Potency is on record?
Its Potency is inconclusive [inhibitor, single point].

For `COc1ccc(-c2cc(-c3ccccc3)c(C#N)c(S(C)(=O)=O)n2)cc1`, which Potency is on record?
Its Potency is inconclusive [inhibitor, partial curve].

Which Potency does the source give for `COc1ccc(-n2ncc3c(SCC(=O)N4CCN(c5ccccc5OC)CC4)ncnc32)cc1` here?
Its Potency is inconclusive [inhibitor, single point].

With `COc1ccc(CCN2C(=O)C3C4C=CC(C5CC45)C3C2=O)cc1OC` (configuration not stated) as the compound, how does the Potency read?
Its Potency is active: 3.98 µM.

For `O=c1[nH]c(=O)n(Cc2ccco2)c2c1C(C(F)(F)F)(C(F)(F)F)N=C(c1ccc(F)cc1)N2`, which Potency is on record?
Its Potency is inconclusive [inhibitor, partial curve].

How did the Potency turn out when `CCS(=O)(=O)N1CCN(c2ccnc3cc(Cl)ccc23)CC1` was run?
The Potency was inconclusive [inhibitor, single point].

For `C=CCNC(=O)/C(=C/c1cccc([N+](=O)[O-])c1)NC(=O)c1ccccc1`, which Potency is on record?
Its Potency is “inactive”.

For `C=CCn1c(COc2ccc(Cl)cc2)nnc1SCc1ccc(C#N)cc1`, which Potency is on record?
Its Potency is inconclusive [inhibitor, single point].

How did the Potency turn out when `COc1ccc(-c2nn(C)c(=O)c3ccccc23)cc1CNC(=O)c1ccco1` was run?
Its Potency is inconclusive [inhibitor, single point].

Which Potency does the source give for `C[C@@H]1C[C@H](O)c2cc(Cl)ccc2N1` here?
The Potency was “inactive”.

`Cc1cc(Cl)ccc1N1C(=O)CC(SCCC(=O)O)C1=O` (configuration not stated) was tested. Which Potency did it give?
Its Potency is inconclusive [inhibitor, single point].

`CCCCC/C=C\C/C=C\CCCCCCCCCC(N)=O` was tested. Which Potency did it give?
The Potency was “inactive”.

`COC(=O)C1=C(C)N(Cc2ccccc2)C2=C(C(C)=O)C(c3ccccc3)[C@@](O)(C(=O)OC)C(=O)N2C1c1ccccc1` (some centres not stated) was tested. Which activity, negative = inhibition did it give?
Its activity, negative = inhibition is inactive: -15.8% [at 13.5 µM] and inactive: -5.62% [at 13.5 µM].

For `COC(=O)c1cc2oc(C)cc2n1CC(=O)Nc1ccc(OC)c(OC)c1OC`, which Potency is on record?
Its Potency is inconclusive [inhibitor, partial curve].

With `CCOc1cc(C(c2c(C)[nH][nH]c2=O)c2c(C)[nH][nH]c2=O)ccc1OCc1ccc([N+](=O)[O-])cc1` as the compound, how does the Potency read?
The Potency was inconclusive [inhibitor, partial curve].

How did the Potency turn out when `CC1CC(C)(C)NC(=S)S1` (configuration not stated) was run?
Its Potency is active: 12.6 µM.

How did the Potency turn out when `O=C(O)c1cc(N/N=C/C=C/c2ccccc2[N+](=O)[O-])ccc1Cl` was run?
Its Potency is inconclusive [inhibitor, partial curve].

For `O=S(=O)(c1ccc(NCc2ccc(F)cc2)nc1)N1CCCC1`, which Potency is on record?
Its Potency is inconclusive [inhibitor, single point].

Which Potency does the source give for `CC(=O)Cn1c(CN2CCCCC2)nc2ccccc2c1=O` here?
The Potency was inconclusive [inhibitor, single point].

`O=C(C1CCCO1)N1CCC(O)(c2ccccc2)CC1` (configuration not stated) was tested. Which Potency did it give?
Its Potency is inconclusive [inhibitor, single point].

For `COc1ccc(CNC(=O)/C=C/c2ccc(S(=O)(=O)NCc3ccco3)cc2)cc1OC`, which Potency is on record?
Its Potency is “inactive”.

How did the Potency turn out when `CCN(CCNC(=O)Nc1ccc(Cl)cc1)c1ccccc1` was run?
The Potency was “inactive”.

For `Cc1nc(NC(=O)c2ccccc2)sc1-c1csc(Nc2cccc(Cl)c2)n1`, which Potency is on record?
The Potency was inconclusive [inhibitor, single point].

For `COc1ccc(N=C2NN=C(c3c(C)[nH]c4ccccc34)CS2)cc1`, which Potency is on record?
Its Potency is active: 14.1 µM.

With `S=C(Nc1ccc(Cl)cc1)c1sc(N2CCCCC2)nc1N1CCOCC1` as the compound, how does the Potency read?
The Potency was “inactive”.

Which Potency does the source give for `CCOC(=O)c1c(N)sc(C(C)=O)c1C` here?
The Potency was inconclusive [inhibitor, single point].

How did the Potency turn out when `Cc1sc2nc3n(c(=O)c2c1C)CCCS3` was run?
The Potency was inconclusive [inhibitor, single point].

For `O=C(c1cc2nc(-c3ccccc3)cc(C(F)(F)F)n2n1)N1CCOCC1`, which Potency is on record?
The Potency was inconclusive [inhibitor, single point].

With `O=c1[nH]c2c(s1)C(c1ccc(O)cc1)C1C3CCC(C3)C1S2` (configuration not stated) as the compound, how does the Potency read?
Its Potency is active: 11.2 µM.

Which Potency does the source give for `O=C(CNC(=S)N(Cc1ccccc1)Cc1cccnc1)NC1CCCC1` here?
The Potency was inconclusive [inhibitor, partial curve].

`O=C(Nc1ccc2nc(-c3cccs3)[nH]c2c1)c1cccs1` was tested. Which Potency did it give?
Its Potency is inconclusive [inhibitor, single point].

`CC(=O)c1cccc(NC(=S)Nc2ccn(Cc3cccc4ccccc34)n2)c1` was tested. Which Potency did it give?
The Potency was active: 0.794 µM.

Which Potency does the source give for `CCCC/C=C/C(NC(=O)OCc1ccccc1Cl)c1ccccc1` (configuration not stated) here?
Its Potency is “inactive”.

Which Potency does the source give for `CCC(=O)c1cc(F)c(N2CCN(S(=O)(=O)c3ccc(C)cc3)CC2)cc1C` here?
The Potency was “inactive”.

Which Potency does the source give for `Cc1ccc(C)c(O)c1` here?
The Potency was “inactive”.

For `O=c1cc(CSc2nnc(COc3ccccc3Cl)o2)nc2sccn12`, which Potency is on record?
Its Potency is inconclusive [inhibitor, single point].

How did the activity, negative = inhibition turn out when `O=C1[C@H]2[C@H]3[C@H](O)[C@H](O)C/C(=N/OC[C@@H](O)COCc4ccco4)[C@H]3CC[C@@H]2C(=O)N1Cc1ccccc1` was run?
Its activity, negative = inhibition is inactive: 0.819% [at 13.5 µM].

How did the Potency turn out when `O=c1nc2n(c3c1oc1ccccc13)Cc1ccccc1-2` was run?
Its Potency is inconclusive [inhibitor, partial curve].

For `CS(=O)(=O)c1cnc(-c2cccnc2)nc1N`, which Potency is on record?
Its Potency is “inactive”.

`CCCS(=O)(=O)c1c(S(=O)(=O)CCC)c2ccccn2c1C(=O)OC` was tested. Which Potency did it give?
Its Potency is inconclusive [inhibitor, single point].

For `CNC[C@H](O)[C@H](O)[C@H](O)[C@H](O)CO`, which Potency is on record?
Its Potency is “inactive”.

For `CN1CCN(c2ncc3nc(-c4cc(F)cc(F)c4)c(=O)n(C4CC4)c3n2)CC1`, which Potency is on record?
Its Potency is inconclusive [inhibitor, partial curve].

For `Oc1ccc(Cl)cc1/C=C/c1ccc2cccc(O)c2n1`, which Potency is on record?
Its Potency is “inactive”.

Which Potency does the source give for `CCCCC(=Nc1ccc(N)cc1)C1=C(O)C(C(=O)OC)C(C)(C)CC1=O` (configuration not stated) here?
The Potency was inconclusive [inhibitor, single point].

With `COc1cc2c(cc1OC)C(SC)=NC(C)(C)C2` as the compound, how does the Potency read?
The Potency was “inactive”.

For `CCC1(C)Cc2c(sc3nc(NN)n(C)c(=O)c23)CO1` (configuration not stated), which Potency is on record?
Its Potency is inconclusive [inhibitor, single point].

`COCCNS(=O)(=O)c1cc(C)c(C)cc1C` was tested. Which Potency did it give?
The Potency was “inactive”.

`Cc1ccc(Cl)cc1NC(=O)CC(O)(C(F)(F)F)C(F)(F)F` was tested. Which Potency did it give?
Its Potency is “inactive”.

Which Potency does the source give for `COc1ccc(Cl)cc1N1C(=O)/C(=C\c2sccc2C)N=C1SCC(=O)NC1CC1` here?
Its Potency is inconclusive [inhibitor, partial curve].

For `C[C@@H]1CC2(OC3C[C@@]4(C)C5=CC[C@H]6C(C)(C)C(O[C@@H]7OC[C@@H](O)[C@H](O)[C@H]7O)CC[C@@]67C[C@@]57CC[C@]4(C)C31)OC(O)C1(C)OC21` (some centres not stated), which Potency is on record?
The Potency was inconclusive [inhibitor, single point].

Which Potency does the source give for `O=C(COC(=O)CC(c1ccccc1)c1ccccc1)NCc1ccccc1` here?
The Potency was inconclusive [inhibitor, partial curve].

`CC1CCN(CC(=O)Nc2ccc(N3CCCCCC3)cc2)CC1` was tested. Which Potency did it give?
Its Potency is inconclusive [inhibitor, single point].

For `O=C(NCc1ccccc1)c1cccc(NS(=O)(=O)c2cccc3cccnc23)c1`, which Potency is on record?
Its Potency is active: 0.501 µM.

For `COC1(OC)N=C(N)C2(C#N)C(c3ccc4c(c3)OCO4)C12C#N` (configuration not stated), which Potency is on record?
The Potency was inconclusive [inhibitor, single point].

How did the Potency turn out when `CC1=CCn2c(=O)c3ccccc3c(=O)n2C1` was run?
The Potency was inconclusive [inhibitor, single point].

Which Potency does the source give for `O=C(Nc1ccccc1)Nc1cc(Cl)cc(Cl)c1` here?
The Potency was “inactive”.

Which Potency does the source give for `O=C(O)COc1ccccc1/C=N/NC(=O)Cc1csc(Nc2cccc(C(F)(F)F)c2)n1` here?
Its Potency is “inactive”.

From PubChem BioAssay AID1030 (National Center for Advancing Translational Sciences (NCATS), 2008)
